Hit rate of the full screen: of about 310,000 compounds, about 14,000 (4.5%) showed an effect of 50% or more. The effect is printed as a negative number. The list shows a part of the results.

These results are taken from article PMC4336329 (PLoS ONE, 2015).
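Further: peak tail current of the secondary pulse compared with the same well before compound.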

The target of this experiment is human ether-à-go-go-related gene (hERG) potassium channel (human, UniProt Q12809). Kind of experiment: primary screen, population patch clamp on CHO cells stably expressing hERG.
human ether-à-go-go-related gene (hERG) potassium channel, sequence (Q12809 whole entry, looked up): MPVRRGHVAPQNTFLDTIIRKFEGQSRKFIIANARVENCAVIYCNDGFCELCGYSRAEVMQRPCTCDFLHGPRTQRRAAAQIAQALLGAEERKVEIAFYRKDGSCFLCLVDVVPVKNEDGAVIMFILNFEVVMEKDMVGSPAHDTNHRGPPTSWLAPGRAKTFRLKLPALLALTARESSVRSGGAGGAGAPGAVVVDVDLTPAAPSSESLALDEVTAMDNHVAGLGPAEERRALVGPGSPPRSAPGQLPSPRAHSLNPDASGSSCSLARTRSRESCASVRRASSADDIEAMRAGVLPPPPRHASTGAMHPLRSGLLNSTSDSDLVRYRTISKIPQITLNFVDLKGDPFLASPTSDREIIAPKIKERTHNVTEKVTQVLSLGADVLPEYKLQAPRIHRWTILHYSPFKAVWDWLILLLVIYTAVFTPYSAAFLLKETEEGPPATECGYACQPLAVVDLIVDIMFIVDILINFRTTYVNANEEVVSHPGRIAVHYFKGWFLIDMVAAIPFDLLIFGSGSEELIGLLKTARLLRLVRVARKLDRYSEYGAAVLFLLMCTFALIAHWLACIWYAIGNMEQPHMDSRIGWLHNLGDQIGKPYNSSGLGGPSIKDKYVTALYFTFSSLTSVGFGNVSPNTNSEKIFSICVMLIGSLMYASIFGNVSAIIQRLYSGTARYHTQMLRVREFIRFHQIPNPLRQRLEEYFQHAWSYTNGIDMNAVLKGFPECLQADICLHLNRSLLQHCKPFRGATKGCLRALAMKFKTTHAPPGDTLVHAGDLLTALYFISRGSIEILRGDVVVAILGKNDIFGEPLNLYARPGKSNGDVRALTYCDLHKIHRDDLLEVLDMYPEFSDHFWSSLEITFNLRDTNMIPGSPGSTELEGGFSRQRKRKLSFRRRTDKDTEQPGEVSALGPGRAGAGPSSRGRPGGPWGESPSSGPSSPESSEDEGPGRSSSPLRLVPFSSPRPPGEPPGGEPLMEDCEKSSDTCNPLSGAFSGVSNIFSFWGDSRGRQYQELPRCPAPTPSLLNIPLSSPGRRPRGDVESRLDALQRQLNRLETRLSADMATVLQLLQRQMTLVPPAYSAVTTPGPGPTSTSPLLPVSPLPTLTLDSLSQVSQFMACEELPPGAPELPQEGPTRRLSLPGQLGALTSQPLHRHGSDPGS
Take `CCOc1ccc(C(=O)NC(=S)NCc2cccnc2)cc1`: the “hERG current change (%, negative = inhibition) at 10uM” value is -16.7%.
To `COc1ccc(CN(C)C(=O)Cc2ccc(S(=O)(=O)N3CCOCC3)s2)cc1OC` belongs 7.58%.
The figure for `CNc1nc(-c2c(C)[nH]c3ccc(OC)cc23)cs1` is 21.9%; for `Brc1ccc(Nc2c3c(nc4ncnn24)CCC3)cc1` it is -21.4%.
The figure for `COc1ccc2cc3cc(C(=O)NC(C)C)oc3nc2c1` is 10.3%.
`O=C(/C(=C\c1ccccc1)c1nc2ccccc2[nH]1)c1ccc(Cl)cc1`: the “hERG current change (%, negative = inhibition) at 10uM” value is -9.53%.
`COc1ccc(C(=O)c2sc(Nc3ccccc3)c(C(=O)Nc3ccc(OC)c(OC)c3)c2N)cc1`: the “hERG current change (%, negative = inhibition) at 10uM” value worked out at 7.79%.
To `O=C(NCc1ccc(Cl)s1)C1CCC(=O)N(CCc2ccccn2)C1` (centres unmarked) belongs -10.1%; to `O=C(Nc1ccc(F)c(Cl)c1)c1ccc2c(=O)n3c(nc2c1)CCCCC3`, -36.6%; to `O=C(O)CSc1c2ccccc2cc2ccccc12`, 9.43%.
The figure for `COc1cc(C(=O)N=c2sccn2C)c([N+](=O)[O-])cc1OC` is 16.3%; for `CC(=O)O/N=C/c1c(N2CCOCC2)n(C)c2ccccc12` it is -14.4%; for `O=C(CS(=O)CC(=O)Nc1ccccc1-c1ccccc1)Nc1ccc(F)cc1` (centres unmarked) it is -2.16%.
The figure for `Cc1ccc(NC2CCCN(C(=O)c3cccnc3)C2)cc1C` (centres unmarked) is 14.5%.
With `COC(=O)CC1COc2ccccc2N1C(=O)c1cccc(Cl)c1` (centres unmarked), the “hERG current change (%, negative = inhibition) at 10uM” value is recorded as -21.8%.
To `CCN1C(=O)c2ccccc2S(=O)c2ccc(C(=O)N3CCCCCC3)cc21` (centres unmarked) belongs 1.79%; to `CCC(C)(C)NC(=O)c1cc(S(=O)(=O)N2CCc3ccccc32)cn1C`, -2.52%; to `CCOc1cc(/C=C2\COc3ccccc3C2=O)cc(Br)c1OCC(=O)N(C)C`, -1.3%.
To `CCOc1ccc(NC(=O)CCN2CCCCC2)cc1` belongs -10.3%; to `CCCCn1c(=S)[nH]c2ccccc2c1=O`, 13.7%.
Consider `Cc1cccc(C)c1NC(=O)CCCSc1nc2ccccc2s1`, for which the “hERG current change (%, negative = inhibition) at 10uM” value was 4.51%.
To `CCOC(=O)c1cnn(-c2nc(-c3ccccc3)nc3c2COC(C)(C)C3)c1N` belongs 10.9%; to `O=C(NNc1nc(-c2ccc(Br)cc2)cs1)c1ccco1`, -3.22%; to `CC(CCC(=O)O)(c1ccc(O)cc1)c1ccc(O)cc1`, 10.9%.
The figure for `CCOC(=O)c1sc(NC(=O)/C=C/c2c(F)cccc2Cl)nc1C` is 23%.
The figure for `CCOc1ccc(CCNC(=O)Nc2ccccc2)cc1OCC` is 17.5%.
In the case of `CCC(C)NC(=S)N1CCN(C)CC1.O=C(O)C(=O)O` (centres unmarked), the “hERG current change (%, negative = inhibition) at 10uM” value is reported as 15.4%.
To `O=C(NC1CCCCC1)C1CCCN1S(=O)(=O)c1cccc2nsnc12` (centres unmarked) belongs -14%; to `C=CCN1CCC2(C)c3cc(O)ccc3CC1C2C.Cl` (centres unmarked), -14.8%; to `O=C(COc1cc2oc(=O)c3c(c2cc1Cl)CCC3)Nc1ccccn1`, 32.9%.
To `Cc1ccc(S(=O)(=O)NCC(=O)OCC(=O)N2CCc3ccccc32)cc1` belongs 3.63%; to `Nc1ncnc2nc(SCCc3ccccc3)[nH]c12`, 7.66%.
The figure for `Cc1cc(NC(=O)CSc2ncnc3c2cnn3-c2ccccc2)no1` is -10.8%; for `CCn1c(SCC(=O)n2c(C)c(C)c3ccccc32)nnc1-c1ccco1` it is 7.75%; for `COc1ccc(CCN2CC(C(=O)N(C)Cc3cccnc3)CC2=O)cc1OC` (centres unmarked) it is 8.53%.
In the case of `Fc1ccccc1OCCCCSc1ncccn1`, the “hERG current change (%, negative = inhibition) at 10uM” value is on record as -27.6%.
The figure for `O=C(O)c1ccc(Oc2cc(Oc3ccc(C(=O)O)cc3)cc([N+](=O)[O-])c2)cc1` is 11.6%; for `CCOC(=O)/C=c1\s/c(=C\c2c(OC)ccc3ccccc23)c(=O)n1CC(=O)NCC1CCCO1` (centres unmarked) it is 2.13%.
For the compound `Cc1cc(C)c(S(=O)(=O)NCc2ccccn2)cc1C`, the “hERG current change (%, negative = inhibition) at 10uM” value is listed as 12.8%.
The figure for `CCOC(=O)C(NC(=O)c1ccccc1Cl)(Nc1ccc(C(F)(F)F)cc1)C(F)(F)F` (centres unmarked) is -7.95%; for `COc1ccc(C(=O)Nc2ccc(S(=O)(=O)N(C)c3ccccc3)cc2)cc1` it is 3.6%.
For `NC(=O)N/N=C/c1cc(Br)ccc1OCC(=O)NCc1ccccc1`, the “hERG current change (%, negative = inhibition) at 10uM” value was -6.43%.
To `Cc1cc(/C=N/n2cnnc2)c(C)n1-c1ccc(Cl)cc1Cl` belongs -7.41%.
Regarding `Cc1ccc2c(C)c(C(=O)NCCN3CCCC(O)C3)oc2c1C` (centres unmarked), the “hERG current change (%, negative = inhibition) at 10uM” value was -2.77%.
Take `COc1cc(C(=O)NCCc2ccc(S(=O)(=O)N3CCCC3)cc2)cc(OC)c1OC`: the “hERG current change (%, negative = inhibition) at 10uM” value was -29.5%.
For `O=C(COc1ccc(/C=N/NC(=O)c2ccc(O)cc2)cc1)Nc1cccc([N+](=O)[O-])c1`, the “hERG current change (%, negative = inhibition) at 10uM” value worked out at 43.4%.
To `CCOc1ccc(NC(=O)Nc2ccccc2SC)cc1` belongs 16.3%.
For `CCOC(=O)n1c(=O)oc2cc(S(=O)(=O)N3CCCCC3)ccc21`, the “hERG current change (%, negative = inhibition) at 10uM” value was -13.4%.
To `Cc1cccc(OCCSc2nc3ncnc(N)c3[nH]2)c1` belongs 13.8%; to `Cc1ccc(C(C(=O)NCc2ccco2)N(CC2CCCO2)C(=O)Cn2nnc3ccccc32)cc1` (centres unmarked), 5.62%.
Regarding `COc1ccc2nc(NC(=O)C3=NN(c4ccccc4)C(=O)CC3)sc2c1`, the “hERG current change (%, negative = inhibition) at 10uM” value is listed as 4.41%.
The figure for `O=C(Cn1ccc([N+](=O)[O-])n1)Nc1ccccn1` is 36.7%; for `CN1C(=O)/C(=C/c2ccccc2OCc2ccccc2)NC1=S` it is 11.5%.
The figure for `Cc1cc(C(=O)CN2C(=O)NC(C)(CC(C)C)C2=O)c(C)n1-c1ccc2c(c1)OCO2` (centres unmarked) is -23.5%; for `Cc1ccccc1CC1(CO)CCCN(Cc2nc(-c3cccs3)oc2C)C1` (centres unmarked) it is -61.1%; for `Cc1cc(C)c(OCC(=O)N(Cc2cccs2)C2CCS(=O)(=O)C2)c(C)c1` (centres unmarked) it is -37.6%.
The figure for `CC(C)(C)c1cc(-c2csc(Nc3ccccc3)[n+]2Cc2ccc(C(=O)O)cc2)cc(C(C)(C)C)c1O.[Br-]` is 5.72%; for `C/C(=N/Nc1ncc(Br)cn1)c1ccc([N+](=O)[O-])cc1` it is -41.8%; for `O=C(COc1cc(F)ccc1[N+](=O)[O-])Nc1ccc(N2CCCCC2)cc1` it is -11%.
With `CCOc1ccc(S(=O)(=O)NCC2CCCO2)cc1` (centres unmarked), the “hERG current change (%, negative = inhibition) at 10uM” value is recorded as -2.45%.
To `CN1C(=O)/C(=C\c2ccco2)N=C1c1ccc(Cl)cc1Cl` belongs -8.63%; to `O=c1c2c(nc3cc(-c4cccc(F)c4)[nH]n13)CCC2`, 1.59%.
To `O=C(Nc1ccnn1C1CCN(C2CCCCC2)CC1)c1ccccc1` belongs -25.8%.
The figure for `COc1cc(Cl)c(S(=O)(=O)N2CCOCC2)cc1Cl` is -7.29%; for `O=C(O)c1cnc(-c2ccccc2)nc1Sc1ccc(Cl)cc1Cl` it is 7.31%; for `O=C(Cc1cccs1)N(CC1CCCO1)C1(C(=O)NC2CCCCC2)CCCCC1` (centres unmarked) it is 7.23%.
Turning to `CCOP(=O)(OCC)C(NC(=O)NS(=O)(=O)c1ccc(C)cc1)c1ccccc1` (centres unmarked), the “hERG current change (%, negative = inhibition) at 10uM” value turned out to be 14.3%.
To `COC(=O)C1=C(C)NC(=O)CC1c1cc(Br)ccc1F` (centres unmarked) belongs 15.9%; to `CCOc1cc(/C=N/NC(=O)C2CCCC2)ccc1OC(C)C`, 17.5%; to `COc1ccc(CC(NC(C)=O)C(=O)NC2CCN(C(=O)C3CCCCC3)CC2)c(OC)c1` (centres unmarked), 22.9%.
Turning to `S=C1CSc2ccccc2N1`, the “hERG current change (%, negative = inhibition) at 10uM” value is reported as 0.736%.
The figure for `CCCCn1c(O)c(/C=N/NC(=O)c2ccncc2)c(=O)[nH]c1=O` is 18.1%; for `COC(=O)c1[nH]c(C)c(/C(O)=C2\C(=O)C(=O)N(CCN3CCOCC3)C2c2ccccc2OC)c1C` (centres unmarked) it is 12.8%.
The figure for `COc1ccc(N(C(=O)C(C)C)S(=O)(=O)c2ccc3c(c2)n(C)c(=O)n3C)cc1` is -7.63%.
The figure for `CN(C(=O)c1ccncc1)C1CC(C)(C)N(O)C(C)(C)C1` is 2.32%; for `C=CCNC(=O)c1ccc(Cl)cc1Cl` it is 11.8%.
`COC(=O)[C@H]1[C@H]2C[C@@H]3c4[nH]c5cc(OC)ccc5c4CCN3C[C@H]2C[C@@H](OC(=O)c2ccc(N)cc2)[C@@H]1OC`: the “hERG current change (%, negative = inhibition) at 10uM” value is given as -41.2%.
Regarding `CCn1c(CNC(=O)c2ccccc2)nc2ccccc21`, the “hERG current change (%, negative = inhibition) at 10uM” value is given as -1.43%.
The figure for `COc1ccc(Nc2nc(Cl)nc(N3CCN(c4ccc(OC)cc4)CC3)n2)cc1` is 21.4%.
Turning to `C1=C(CCNCC2CC2)CCCC1.Cl`, the “hERG current change (%, negative = inhibition) at 10uM” value is 1.5%.
To `Cc1ccc(S(=O)(=O)CCc2nnc(NC(=O)c3cccs3)s2)cc1` belongs -20.6%.
To `CCc1ccc(C(O)(CNCc2ccccc2)c2ccccc2)cc1` (centres unmarked) belongs -41.6%; to `Cc1c(NC(=O)CSc2ccc(Cl)cc2)cccc1-c1nc2ncccc2o1`, -14.1%; to `CNS(=O)(=O)c1ccc(NC(=O)c2csc(C)c2)cc1`, -9.46%.
For `COC(=O)CCCCC(=O)C1C(=O)CC(C)(C)C(C(=O)OC)C1=O` (centres unmarked), the “hERG current change (%, negative = inhibition) at 10uM” value amounted to 3.34%.
The figure for `O=C(O)c1ccc(F)c(S(=O)(=O)Nc2ccccc2)c1` is 11.8%; for `COc1cc(OC)c(/C=N/NC(=O)c2ccncc2)cc1Br` it is 11.5%.
The figure for `COc1cccc(-c2nc(-c3ccccc3)no2)c1` is 1.72%.
To `CCOc1ccccc1CN(CCc1ccc2c(c1)OCO2)Cc1ccccn1` belongs -64.4%.
